# Laboratory results reported in the supplement of paper PMC9334596.
# “And” between values parts separate entries of the source, which are not always exact repeats. Equal values may be shown once. In all, about 5,300 compounds were measured (“PER2::LUC luminescence relative to vehicle control”: median about 0.96, highest 2% from about 1.3 on). This is one part of the list.
# Tested on: mPer2Luc MEF
# Assay: PER2::LUC luminescence relative to vehicle control (fold of vehicle); higher = higher PER2::LUC reporter signal
# Settings: 10 µM
# Summary of the method: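 The reported values are PER2::LUC luminescence as fold of vehicle control in mouse embryonic fibroblasts carrying the mPer2Luc reporter. Cells were seeded at ~3000 per well in 384-well plates in DMEM with 10% FBS at 37 °C and 5% CO2, and compounds were added at 10 μM 48 h later. ONE-Glo luminescence was read 24 h and 30 h after treatment.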
Structure (SMILES),PER2::LUC luminescence (time after treatment 24 h),PER2::LUC luminescence (time after treatment 30 h)
CC12CCC(CC1=O)C2(C)C (centres undefined),0.994 and 0.752,1.3 and 1.01
C[C@@H]1NC(=O)[C@@H](N)CNC(=O)[C@H](C2CCNC(=N)N2)NC(=O)/C(=C/NC(N)=O)NC(=O)[C@H](CNC(=O)CC(N)CCCN)NC1=O.N=C1NCC[C@H]([C@@H]2NC(=O)/C(=C/NC(N)=O)NC(=O)[C@H](CNC(=O)C[C@@H](N)CCCN)NC(=O)[C@H](CO)NC(=O)[C@@H](N)CNC2=O)N1,0.945 and 0.795,0.942 and 1.02
COc1ccc(/C=C/c2ccccc2F)cc1,1.2,1.26
CCC[C@@H]1C[C@@H](C(=O)N[C@@H]([C@H]2O[C@H](SC)[C@H](O)[C@@H](O)[C@H]2O)[C@H](C)Cl)N(C)C1,1.08,1.93
O=C(N[C@H](CO)[C@H](O)c1ccc([N+](=O)[O-])cc1)C(Cl)Cl,1.19,1.01
O=C(O)CCNC(=O)c1ccccc1,0.932,1.11
CCOC(=O)c1sc(NC(=O)[C@H](C(C)C)n2c(=O)[nH]c3ccccc3c2=O)nc1C,1.02,0.987
CC(=O)N[C@@H](Cc1c[nH]c2ccccc12)C(=O)OCc1cc(C(F)(F)F)cc(C(F)(F)F)c1,1.01,1.01
NC/C=C/C(=O)O,1.05 and 0.993,1 and 1.05
CCN(CC)CCOC(=O)c1cc(Cl)c(N)cc1OC,1.19,1.13
CCOc1ccc2ccccc2c1C(=O)N[C@@H]1C(=O)N2[C@@H]1SC(C)(C)[C@@H]2C(=O)O,0.869,0.974
CN(C)C/C=C(/c1ccc(Br)cc1)c1cccnc1,0.825,0.885
CC(C)(CO)C(O)C(=O)NCCCO (centres undefined),0.807,1.07
COc1ccc(-c2oc3cc(OC)c(OC)c(OC)c3c(=O)c2OC)cc1,0.788,0.923
NCCCNCCCCNCCCN,0.981 and 0.333,0.96 and 0.499
CCN(CC)CCNC(=O)c1cc(Cl)c(N)cc1OC,0.813,0.886
CC1=NN(c2ccccc2)C(=O)C1,0.941 and 0.531,1.01 and 0.771
N#C/C(=C\c1c[nH]c2ccccc12)C(=O)c1ccc(O)c(O)c1,1.1,1.06
Cn1cnc2c1c(=O)[nH]c(=O)n2C,0.864,1
N#C/C(=C\c1cn(-c2ccccc2)c2ccccc12)C(=O)O,1.1,1.15
O=C(O)Cc1c[nH]c2ccccc12,1.02,0.984

Structure (SMILES),PER2::LUC luminescence (time after treatment 24 h),PER2::LUC luminescence (time after treatment 30 h)
C[C@@H]1O[C@@H](OC[C@H]2O[C@@H](OCCc3ccc(O)c(O)c3)[C@H](O)[C@@H](O[C@@H]3O[C@@H](C)[C@H](O)[C@@H](O)[C@H]3O)[C@@H]2OC(=O)/C=C/c2ccc(O)c(O)c2)[C@H](O)[C@H](O)[C@H]1O,1.09,0.982
COc1ccccc1Oc1c(NS(=O)(=O)c2ccc(C(C)(C)C)cc2)nc(-c2ncccn2)nc1OCCO,1.03,1.1
O=C(N[C@H]1CCN(C(=O)c2cc(C(F)(F)F)cc(C(F)(F)F)c2)[C@H](Cc2ccc(Cl)cc2)C1)c1ccnc2ccccc12,0.956,0.88
Nc1ccccc1S(N)(=O)=O,1.03,1.02
O=Cc1ccccc1O[C@@H]1O[C@H](CO)[C@@H](O)[C@H](O)[C@H]1O,0.95,1.02
OCc1cccnc1,0.957 and 1.11 and 0.875,0.958 and 0.75 and 0.854
CCC(C)(C)C(=O)O[C@H]1C[C@@H](C)C=C2C=C[C@H](C)[C@H](CC[C@@H](O)C[C@@H](O)CC(=O)O)[C@H]21,1.04,1.05
O=C(/C=C/c1ccc(O)cc1)CC(=O)/C=C/c1ccc(O)cc1,1.1,1.07
C[S+]([O-])c1ccc(-c2nc(-c3ccc(F)cc3)c(-c3ccncc3)[nH]2)cc1 (centres undefined),0.747,1.16
CC1=CC(=O)C(C(C)C)=CC1=O,0.861,0.986
O=C(O)Cc1c[nH]c2ccc(O)cc12,1.05,0.903
CCN(c1nc(N)c(C(=O)NC(=N)N)nc1Cl)C(C)C,1.04,1.06
COC(=O)C(Cc1ccccc1)NC(=O)/C(=C1/OC(=O)C(c2ccccc2)=C1O)c1ccccc1 (centres undefined),0.992,0.923
CN1CCC[C@@H]1Cc1c[nH]c2ccc(CCS(=O)(=O)c3ccccc3)cc12,0.796,0.974
CC(C)[N+](C)(CCOC(=O)C1c2ccccc2Oc2ccccc21)C(C)C,1.19,0.834
C[N+](C)(C)C[C@H](O)CC(=O)O,0.959,0.919
CN(C)CCC=C1c2ccccc2COc2ccccc21,0.963 and 0.435,0.843 and 0.535
C1COC(NC(C2CC2)C2CC2)=N1,0.931,1
COc1cc(OC2CCN(C)CC2)ccc1Nc1ncc2c(n1)n(C1CCCC1)c(=O)n2C,0.99,0.927
C#CCN[C@@H]1CCc2ccccc21,1.03 and 0.84,0.995 and 0.732
Cn1c(=O)[nH]c2ncn(C)c2c1=O,1.06 and 1.11,0.947 and 0.808
